# According to publication PMC4336329 (PLoS ONE, 2015):
# The campaign covered roughly 310,000 compounds. About 14,000 (4.5%) showed an effect of 50% or more. Effects have a minus sign here. The list shows a part of the results.
# Molecular target: human ether-à-go-go-related gene (hERG) potassium channel (human, UniProt Q12809)
# Experiment: primary screen, population patch clamp on CHO cells stably expressing hERG
# 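Further: peak tail current of the secondary pulse compared with the same well before compound.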
# Sequence of human ether-à-go-go-related gene (hERG) potassium channel (Q12809 whole entry, looked up): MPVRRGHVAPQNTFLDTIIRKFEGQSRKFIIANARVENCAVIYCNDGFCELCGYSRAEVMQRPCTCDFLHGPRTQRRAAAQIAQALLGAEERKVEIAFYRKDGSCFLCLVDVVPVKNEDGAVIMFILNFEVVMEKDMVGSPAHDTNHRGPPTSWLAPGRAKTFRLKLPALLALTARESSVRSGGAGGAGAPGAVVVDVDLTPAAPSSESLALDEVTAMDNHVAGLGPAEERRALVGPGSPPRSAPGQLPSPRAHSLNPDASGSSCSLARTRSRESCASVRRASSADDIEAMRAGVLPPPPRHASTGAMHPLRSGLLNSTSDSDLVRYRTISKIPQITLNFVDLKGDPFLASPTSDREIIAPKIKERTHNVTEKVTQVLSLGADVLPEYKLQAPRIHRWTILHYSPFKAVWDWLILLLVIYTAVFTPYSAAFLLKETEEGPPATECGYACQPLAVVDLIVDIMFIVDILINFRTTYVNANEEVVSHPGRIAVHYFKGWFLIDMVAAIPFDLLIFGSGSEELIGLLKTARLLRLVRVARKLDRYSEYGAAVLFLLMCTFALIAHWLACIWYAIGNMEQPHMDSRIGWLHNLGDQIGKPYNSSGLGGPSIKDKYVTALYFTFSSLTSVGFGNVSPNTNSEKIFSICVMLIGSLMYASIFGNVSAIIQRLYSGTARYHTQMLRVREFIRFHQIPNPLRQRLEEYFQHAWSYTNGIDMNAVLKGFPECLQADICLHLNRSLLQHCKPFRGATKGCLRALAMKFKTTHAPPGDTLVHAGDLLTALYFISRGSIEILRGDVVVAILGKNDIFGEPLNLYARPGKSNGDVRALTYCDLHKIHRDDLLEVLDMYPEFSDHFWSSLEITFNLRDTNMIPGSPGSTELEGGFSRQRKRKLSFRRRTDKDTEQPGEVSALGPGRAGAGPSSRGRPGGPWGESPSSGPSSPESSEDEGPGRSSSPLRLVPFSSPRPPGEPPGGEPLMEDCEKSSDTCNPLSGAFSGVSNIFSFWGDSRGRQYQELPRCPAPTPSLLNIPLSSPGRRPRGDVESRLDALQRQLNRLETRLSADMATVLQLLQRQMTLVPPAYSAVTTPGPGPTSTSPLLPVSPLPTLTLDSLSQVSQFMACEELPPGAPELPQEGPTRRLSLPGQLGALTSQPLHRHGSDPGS
row,Structure (SMILES),"hERG current change (%, negative = inhibition) at 10uM [%]"
1,COc1ccc(NC(=O)CN(C)C(=O)c2ccc(NS(=O)(=O)c3ccc(C)c([N+](=O)[O-])c3)cc2)cc1,-2.55
2,C=COCCn1c(C)c(C(=O)OCC)c2cc(O)ccc21,6.49
3,CC(c1ccccc1)N1CCn2c(nc3cc(NC(=O)c4cccs4)ccc32)C1 (stereo not shown),-23.4
4,Cc1ccc(C2CC(=O)C=C(NCc3ccccc3)C2)cc1 (stereo not shown),-38.8
5,COc1ccc(CCNC(=O)COc2ccc(N(C)S(=O)(=O)c3ccc(C)cc3)cc2)cc1,6.95
6,COc1ccc(CNC(=O)[C@H](Cc2c[nH]c3ccccc23)NC(=O)[C@@H]2Cc3ccccc3CN2)cc1,-53.9
7,O=C(Nc1ccc(C(F)(F)F)cc1)C1=NN(C2CCS(=O)(=O)C2)C(=O)CC1 (stereo not shown),-8.18
8,CC(C)Cn1c(=O)c(C(=O)Nc2cnccn2)c(O)c2ccccc21,9.07
9,CCCP(=O)(CC(=O)O)c1ccccc1 (stereo not shown),10.6
10,O=C(NC1CCCCC1)C1CCN(S(=O)(=O)N2CCOCC2)CC1,5.92
11,C=CCSC(=C(C#N)C#N)c1cc2c([nH]1)CCCC2,-1.75
12,O=C(CN(Cc1ccccc1)S(=O)(=O)c1ccc(F)cc1)NCc1ccccn1,-10.6
13,Cc1ccc(C(=O)O)cc1NC(=O)C1CCCN1S(=O)(=O)c1cccc2nsnc12 (stereo not shown),10.9
14,CC1=C(C(=O)Nc2ccccc2)C(c2ccccn2)n2nc(CCCO)nc2N1 (stereo not shown),8.03
15,O=S(=O)(NCCSc1ccc(Cl)cc1)c1ccc(F)cc1,0.267
16,Cc1nn(CCCC(=O)Nc2sc3c(c2C#N)CCC3)c(C)c1[N+](=O)[O-],-8.25
17,O=C(Nc1ccccc1N1CCOCC1)c1cccc([N+](=O)[O-])c1,-17.7
18,N#Cc1c(NC(=O)COC(=O)c2nccnc2N)sc2c1CCCC2,-3.17
19,CN1C(=O)/C(=C/C=C2\SCCN2C)OC1=S,15.6
20,Cc1c(-c2csc(N)n2)cnn1C,15.5
21,Cc1ccc(C(=O)NC(=S)Nc2ccc3[nH]c(=O)[nH]c3c2)cc1C,11.2
22,CC(=O)c1ccc(N2CCN(C(=O)CCC(=O)Nc3ccc4nc(N5CCN(C)CC5)cc(C)c4c3)CC2)cc1,20.3

row,Structure (SMILES),"hERG current change (%, negative = inhibition) at 10uM [%]"
1,CCc1cc(=O)oc2cc(C)cc(OCC(=O)NCC3CCC(C(=O)O)CC3)c12 (stereo not shown),4.34
2,O=C(Nc1ccccc1C(=O)NCC1CCCO1)c1ccccc1 (stereo not shown),-7.42
3,CCN(CC)S(=O)(=O)c1ccc(O)c(C(=O)OCC(=O)NC2CCCC2)c1,-3.07
4,O=C(O)CN1C(=O)/C(=C\c2ccccc2OCc2ccc(Cl)cc2Cl)SC1=S,13
5,Cc1ccc(OCC(=O)Nc2ccc(CN3CCCCC3)cc2)c(C)c1,-69.4
6,Br.C1=C(c2ccccc2)N2CCN=C2S1,-7.6
7,O=C(O)C1CCCCC1C(=O)Nc1ccc(S(=O)(=O)N2CCCCC2)cc1 (stereo not shown),12.5
8,CCOC(=O)CCS(=O)(=O)c1nc(-c2ccccc2)cc(C(F)(F)F)n1,-19.4
9,CC(C)C(C)(C#N)NC(=O)CSc1ncnc2sc(-c3ccccc3)cc12 (stereo not shown),-6.64
10,COc1ccc2nc(/N=C/c3cccc(OC)c3O)sc2c1,2.75
11,Cc1ccc(N2C(=O)C3C(c4ccccc4)N4CCCN4C3(C)C2=O)cc1 (stereo not shown),-0.37
12,CCc1noc(C)c1C(=O)NNC(=O)c1ccccc1,-1.03
13,NC(=O)c1nsc(C(=O)N(c2ccc3c(c2)OCCO3)C(C(=O)NCC2CCCO2)c2ccc(F)cc2)c1N (stereo not shown),-16.4
14,COc1cc(C(=O)NNC(=O)c2ccc(NC(=O)C(C)(C)C)cc2)cc(OC)c1OC,7.94
15,CCOC(=O)c1c(/N=C/c2c(O)n(-c3ccc(F)cc3)c(=S)[nH]c2=O)sc2c1CCCC2,14.4
16,COc1ccc(C2=NN(c3nc4ccccc4s3)C(=O)/C2=C\N(C)C)cc1,15.7
17,Cc1ccc(-c2nnn(CC(=O)N(Cc3cccs3)C(C(=O)NC3CCCCC3)c3ccco3)n2)o1 (stereo not shown),-4.06
18,COC(C/C=C/[C@@H](O)COCc1ccccc1)OC,1.32
19,O=C(CCCCCNC(=O)N1CCn2c1nc1ccccc12)NCCc1ccccc1,9.42
20,COC(=O)c1ccccc1NCC(=O)c1ccc(OC)cc1,14.1
21,N#C/C(=C/c1ccc([N+](=O)[O-])cc1)C(=O)Nc1ccccc1O,4.73
22,CC(C)C(NC(=O)c1c(F)cccc1F)C(=O)NCC(c1ccccc1)N(C)C (stereo not shown),9.22

row,Structure (SMILES),"hERG current change (%, negative = inhibition) at 10uM [%]"
1,O=S(=O)(c1cccc2nsnc12)N1CCN(Cc2ccccc2)CC1,2.46
2,CCOC(=O)C1CCN(C(=O)c2ccc(OC3CCN(C(=O)CCOC)CC3)cc2)CC1,8.91
3,Cn1cccc1CC(=O)N/N=C\c1ccccc1,15.4
4,Cc1cc(OCC(=O)N2CCC(O)(c3ccc(Cl)cc3)CC2)c2c(C)cc(=O)oc2c1,4.23
5,Cn1ccnc1SCc1cn2ccccc2n1,10.7
6,COc1cc(C(=O)NCCSc2ccc(F)cc2)cc(OC)c1OC,-10.7
7,O=C(COc1ccc(Cl)cc1Cl)Nc1ccc2nc3n(c(=O)c2c1)CCCC3,0.771
8,O=C(O)c1cc(S(=O)(=O)Nc2ccc3c(c2)OCCO3)c(Cl)cc1Cl,-1.96
9,Cc1ccc(C(=O)NCc2nnc(SCC(=O)NC(C)c3ccccc3)n2C)cc1 (stereo not shown),11.8
10,CCSc1nc2c(c(=O)[nH]1)C(c1cccnc1)C(C(=O)OC)=C(C)N2 (stereo not shown),7.31
11,CCN(CCCNC(=O)COc1cc(=O)n(CC)c2ccccc12)c1ccccc1,-52.5
12,COc1ccc(C2C(C(=O)c3ccc(C)o3)=C(O)C(=O)N2Cc2cccnc2)cc1OC (stereo not shown),16.8
13,COc1ccccc1NC(=O)CN(Cc1ccco1)C(=O)c1cccs1,-4.4
14,COc1ccc(C(=O)CN2C(=O)NC3(CCCc4ccccc43)C2=O)cc1OC (stereo not shown),-19
15,O=C(CSCc1ccccc1)Nc1cccc(C(=O)Nc2ccc(C(=O)O)cc2)c1,4.84
16,CC(C)n1nnnc1-c1cccc(Cl)c1,2.2
17,Cc1ccc(S(=O)(=O)NCCC(=O)NC2CCCCC2C)cc1 (stereo not shown),3.4
18,CCCCn1c(=O)c(C(=O)Nc2ccccc2S(N)(=O)=O)c(O)c2ccccc21,-12.3
19,Cc1cccc(-c2c3c(=O)n(C)c(=O)n(C)c3cn2-c2ccccc2O)c1,1.06
20,Cc1ccc2c(c1)N(CC(=O)NC1CCCC1)C(=O)C(C)O2 (stereo not shown),-3.85
21,O=C(Oc1ccc(C(=S)N2CCOCC2)cc1Br)c1cc(Cl)ccc1Cl,14.1
22,Cc1cccc(NC(=S)N(CCN2CCOCC2)Cc2cc3cc4c(cc3[nH]c2=O)OCCO4)c1,-3.3

row,Structure (SMILES),"hERG current change (%, negative = inhibition) at 10uM [%]"
1,O=C(Nc1ccccc1NS(=O)(=O)c1ccc(F)cc1)C1CCCC1,4.36
2,CCNC(=S)NNc1nc(N2CCCCC2)nc(N2CCOCC2)n1,12.6
3,COc1cc(NC(=S)N2CCCC2)cc(OC)c1,16.2
4,CCCCn1c(CCC(=O)O)nc2cc(S(=O)(=O)N(CC)CC)ccc21,4.24
5,O=C(CSc1n[nH]c(-c2ccccc2Cl)n1)NCc1cccc(C(=O)O)c1,18.2
6,Cc1cccc(-n2c(SCC(=O)N3CC(=O)Nc4ccccc43)nc3ccccc3c2=O)c1C,-8.02
7,CC(C(=O)Nc1ccc2c(c1)OCCO2)N1CCN(C(=O)c2ccco2)CC1 (stereo not shown),-4.62
8,Cc1ccc(C)c(NC2=NS(=O)(=O)c3ccccc32)c1,-3.23
9,N#Cc1c(N)n(Cc2ccccc2)c(=O)c2cc([N+](=O)[O-])ccc12,9.84
10,CCCCNC(=O)CSc1nc2ccc(Nc3nc(N4CCOCC4)nc(N4CCOCC4)n3)cc2s1,-6.04
11,Cc1cc(Cl)ccc1Oc1cccc(C(=O)/C(C#N)=C/N(C)C)c1,-13.9
12,COc1ccc(C(=O)NC(C(=O)N2CCN(c3ccccc3O)CC2)C(C)C)cc1 (stereo not shown),7.18
13,Cc1ccc(C(=O)N2CC(=O)Nc3ccc(F)cc3C2c2ccc(F)cc2)cc1 (stereo not shown),-20.4
14,Cc1cccc(Cc2nnc(CCC(=O)N(C)Cc3ccncc3C)o2)c1,-3.01
15,CCN(CC)CCCNc1cc(C)nc2cc(-c3cccs3)nn12,-35.3
16,CCOC(=O)CNC(=O)CSc1nnc(CCc2nc3ccccc3[nH]2)n1C,17.2
17,CN(C(=O)c1ccc(Br)o1)C1CCS(=O)(=O)C1 (stereo not shown),24.4
18,O=[N+]([O-])c1ccccc1/C=C/C=N/n1c(-c2cc(-c3ccccc3)n[nH]2)n[nH]c1=S,8.59
19,CCN1CCN(C(=O)Cn2nc(C)c3sc4ccccc4c3c2=O)CC1,-3.06
